{"source": "PubChem BioAssay AID504832", "about": "(National Center for Advancing Translational Sciences (NCATS), 2011)", "note": "Hit rate of the full screen: of about 310,000 compounds, about 18,000 (5.8%) were called active. Inconclusive means that the source gave no clear call. Such entries were picked first, then a sample of the others. Calls follow the shape of the dose curve; as a rule, active = well fitted inhibition curve with a large enough effect; inconclusive = small, poorly fitted or top-dose-only effect, or another doubt; inactive = no such curve, though single readings can be large or run the other way. Potencies of inconclusive entries are left out as doubtful fits. % is scaled to controls: 0 for no effect and ±100 for the full control effect; potency is read from the fitted curve at half-maximal effect; tags tell the direction and shape of the fitted curve."}
{"experiment": "Primary qHTS for delayed death inhibitors of the malarial parasite plastid, 48 hour incubation", "conditions": "P. falciparum luciferase growth in erythrocytes; series mostly up to 28.7 µM; activity change, negative = inhibition: at the top concentration", "summary_of_the_method": "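Erythrocytes infected with P. falciparum carrying an integrated firefly luciferase reporter (2% hematocrit, 0.1% parasitemia final) were exposed to compounds in RPMI 1640 with 0.5% Albumax at 37 C, 5% CO2. Growth inhibition was scored as reduced luminescence.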"}
{"smiles": "Cc1ccc(N2CC(C(=O)N3CCC(C(=O)Nc4nnc(C(C)(C)C)s4)CC3)CC2=O)cc1", "note": "(stereo unspecified)", "Potency": "inconclusive [inhibitor, partial curve]"}
{"smiles": "CC(C)[C@H](NC(=O)c1c(F)cccc1F)C(=O)OCC(=O)NC(=O)NC1CCCC1", "activity change, negative = inhibition": "inactive: 15.8%"}
{"smiles": "CC1=C(C(=O)NC2CCCc3c2cnn3-c2cccc(C)c2C)OCCO1", "note": "(stereo unspecified)", "Potency": "inconclusive [inhibitor, partial curve]"}
{"smiles": "O=C(Nc1ccc(S(=O)(=O)N2CCOCC2)cc1)c1ccccc1F", "Potency": "inconclusive [inhibitor, full curve, poor fit]"}
{"smiles": "O=C1c2nccnc2C(=O)N1c1ccc(F)cc1", "activity change, negative = inhibition": "inactive: 10.7%"}
{"smiles": "COc1ccc(Cl)cc1NC(=S)N1CC(C)OC(C)C1", "note": "(stereo unspecified)", "Potency": "inconclusive [inhibitor, partial curve, poor fit]"}
{"smiles": "CN(C(=S)NC(=O)c1ccc(Br)o1)c1ccccc1", "activity change, negative = inhibition": "inactive: 12%"}
{"smiles": "CCC(C)C(NC(=O)c1ccccc1)C(=O)Nc1ccc(S(=O)(=O)Nc2cc(C)nc(C)n2)cc1", "note": "(stereo unspecified)", "Potency": "inconclusive [inhibitor, partial curve, poor fit]"}
{"smiles": "Nc1[nH]ncc1-c1ccccc1", "activity change, negative = inhibition": "inactive: 15.3%"}
{"smiles": "CC1=C(C(=O)OCc2ccc3c(c2)OCO3)C(c2ccccc2OCc2ccccc2)NC(=O)N1", "note": "(stereo unspecified)", "Potency": "active: 10.4 µM"}
{"smiles": "COC(=O)CCCCCN1C(=O)NC(c2ccc(-c3ccccc3)cc2)C(C(=O)OCc2ccccc2)=C1C", "note": "(stereo unspecified)", "Potency": "inconclusive [inhibitor, single point]"}
{"smiles": "COc1ccc(C2/C=C\\CN(C(=O)NC34CC5CC(CC(C5)C3)C4)CC(=O)N2Cc2ccc(F)cc2)cc1", "note": "(stereo unspecified)", "Potency": "inconclusive [inhibitor, single point]"}
{"smiles": "COC(=O)Cn1c(=NC(=O)c2ccc(S(=O)(=O)N3CCc4ccccc4C3)cc2)sc2cc(OC)ccc21", "Potency": "inconclusive [inhibitor, single point]"}
{"smiles": "Cn1c(SCC(=O)Nc2ccccc2F)nc2c(c1=O)SCC2", "Potency": "inconclusive [inhibitor, partial curve]"}
{"smiles": "COc1ccc(/C=N/NC(=O)COc2ccc(Cl)cc2Cl)cc1Cn1nc(C)cc1C", "activity change, negative = inhibition": "inactive: -3.05%"}
{"smiles": "Cc1cc(C)c(C)c(S(=O)(=O)NCc2ccc(C(=O)N3CCCCC3)cc2)c1C", "Potency": "active: 1.04 µM"}
{"smiles": "O=C(NNC(=S)Nc1ccccc1)c1cccc(S(=O)(=O)N2CCOCC2)c1", "Potency": "inconclusive [inhibitor, single point]"}
{"smiles": "O=C(Nc1cc(C(F)(F)F)ccc1N1CCOCC1)C1CC1", "Potency": "inconclusive [inhibitor, single point]"}
{"smiles": "Nc1cccc(-c2cn3cccnc3n2)c1", "activity change, negative = inhibition": "inactive: 16.5%"}
{"smiles": "COc1ccc(S(=O)(=O)N2CCC(C(=O)Nc3ccc(S(=O)(=O)N4CCCC4)cc3)CC2)cc1OC", "Potency": "inconclusive [inhibitor, partial curve]"}
{"smiles": "CCCN1CCC(NCc2cn(C)nc2-c2ccc(Oc3ccccc3)cc2)CC1", "Potency": "active: 1.65 µM"}
{"smiles": "COc1ccccc1NS(=O)(=O)c1ccc(NN=C2CCCCC2)c([N+](=O)[O-])c1", "Potency": "inconclusive [inhibitor, single point]"}
{"smiles": "COc1ccc(NC(=O)C(c2ccc(Cl)cc2)C(C)C)cn1", "note": "(stereo unspecified)", "Potency": "active: 1.47 µM"}
{"smiles": "CN(CC1CCCO1)S(=O)(=O)c1ccc(C(=O)Nc2ccc([N+](=O)[O-])cc2)cc1", "note": "(stereo unspecified)", "Potency": "inconclusive [inhibitor, partial curve, poor fit]"}
{"smiles": "Cc1c(C2=CCN(S(=O)(=O)c3ccc(Cl)cc3)CC2)c2ccccc2n1C", "Potency": "inconclusive [inhibitor, single point]"}
{"smiles": "COc1ccc(N2C(=O)[C@@H]3C(c4cccnc4)=NO[C@@H]3C2=O)cc1", "activity change, negative = inhibition": "inactive: 8.42%"}
{"smiles": "O=C(NCC(c1cccs1)N1CCOCC1)c1ccccc1NS(=O)(=O)c1ccc(Cl)cc1", "note": "(stereo unspecified)", "Potency": "inconclusive [inhibitor, partial curve]"}
{"smiles": "CC(O)c1cccc(NC(=O)CCCc2ccccc2)c1", "note": "(stereo unspecified)", "activity change, negative = inhibition": "inactive: 27.7%"}
{"smiles": "COc1ccc(SC[C@H](CC(C)C)N2CCN(C)CCC2=O)cc1", "activity change, negative = inhibition": "inactive: 57.3%"}
{"smiles": "COC(=O)c1ccc(Cn2cnc3c(sc4nc(N5CCOCC5)c5c(c43)CCCC5)c2=O)o1", "Potency": "active: 1.65 µM"}
{"smiles": "CN(C(=O)CSc1nc2cc([N+](=O)[O-])ccc2n1-c1ccc(F)cc1)C1CCS(=O)(=O)C1", "note": "(stereo unspecified)", "Potency": "inconclusive [inhibitor, single point]"}
{"smiles": "CC(C)(C)OC(=O)N/N=C/c1cn(-c2ccccc2)nc1-c1cccnc1", "Potency": "inconclusive [inhibitor, partial curve]"}
{"smiles": "CC1CCCCC1NS(=O)(=O)c1ccc(S(=O)(=O)N2CCCC2)cc1", "note": "(stereo unspecified)", "Potency": "inconclusive [inhibitor, single point]"}
{"smiles": "COc1ccc2c(=O)c3c(=O)n(Cc4ccco4)c(C4CCCCC4)nc3oc2c1", "Potency": "inconclusive [inhibitor, single point]"}
{"smiles": "CCCn1c(C(C)Nc2nc(-c3ccc(Cl)c([N+](=O)[O-])c3)cs2)nc2cc(Cl)c(N3CCCCC3)cc21", "note": "(stereo unspecified)", "Potency": "inconclusive [inhibitor, partial curve, poor fit]"}
{"smiles": "O=C(NCc1ccco1)C(c1ccco1)N(Cc1cccs1)C(=O)Cn1nnc2ccccc21", "note": "(stereo unspecified)", "Potency": "inconclusive [inhibitor, partial curve]"}
{"smiles": "CC(C)c1nc(SCC(=O)Nc2ccc(N3CCOCC3)cc2)c2ccccc2n1", "Potency": "inconclusive [inhibitor, single point]"}
{"smiles": "CC(=O)c1ccc(N2CCN(C(=S)Nc3ccccc3)CC2)cc1", "Potency": "inconclusive [inhibitor, single point]"}
{"smiles": "CC(=O)N1CCN(C(=O)c2ccc(Cl)c(NC(=O)c3cccs3)c2)CC1", "activity change, negative = inhibition": "inactive: -6.47%"}
{"smiles": "CCOC(=O)C1=C(C)NC2=C(C(=O)CCC2)C1c1cn(Cc2ccc(Cl)cc2Cl)nc1-c1ccccc1", "note": "(stereo unspecified)", "Potency": "active: 0.117 µM"}
{"smiles": "COc1ccc(NC(=O)Cn2nnc(-c3ccccc3NS(=O)(=O)c3ccc(OC)cc3)n2)cc1", "Potency": "inconclusive [inhibitor, partial curve, poor fit]"}
{"smiles": "Cc1sc(N/N=C/c2cccnc2)nc1-c1ccc(Cl)cc1", "Potency": "active: 13.1 µM"}
{"smiles": "CC1C(=O)CC(c2ccc([N+](=O)[O-])cc2)NC1c1ccc([N+](=O)[O-])cc1", "note": "(stereo unspecified)", "Potency": "inconclusive [inhibitor, partial curve, poor fit]"}
{"smiles": "COc1cc(CC(=O)Nc2ccc3nc(SC)sc3c2)cc(OC)c1OC", "Potency": "inconclusive [inhibitor, single point]"}
{"smiles": "CCN1CCN(S(=O)(=O)c2ccc(Cl)c(C(=O)N(C)C(c3ccccc3)c3ccccc3)c2)CC1", "Potency": "active: 9.28 µM"}
{"smiles": "Cc1cc(C)cc(NC(=O)c2cc(S(=O)(=O)NCc3ccco3)ccc2F)c1", "activity change, negative = inhibition": "inactive: 20.7%"}
{"smiles": "Cc1ccc(NC(=O)COc2cccc(-n3cnnn3)c2)cc1[N+](=O)[O-]", "Potency": "inconclusive [inhibitor, single point]"}
{"smiles": "Nc1cc(=O)[nH]c(SCc2cccc3ccccc23)n1", "Potency": "inconclusive [inhibitor, single point]"}
{"smiles": "COc1ccc([N+](=O)[O-])cc1COc1cc(C)cc2oc(=O)cc(-c3ccccc3)c12", "Potency": "inconclusive [inhibitor, partial curve, poor fit]"}
{"smiles": "COC(=O)c1ccc(COc2ccc(/C=N/Nc3nc(C)cc(=O)[nH]3)cc2)cc1", "Potency": "inconclusive [inhibitor, single point]"}
{"smiles": "Cc1cccc(-n2nnc(C(=O)NCc3ccc4c(c3)OCO4)c2N)c1", "activity change, negative = inhibition": "inactive: 10.2%"}
{"smiles": "CCOC(=O)C1CCN(c2ccc(-c3cccs3)nn2)CC1", "activity change, negative = inhibition": "inactive: 25.3%"}
{"smiles": "CCc1ccc(NC(=S)N2CCN(C)CC2)cc1", "activity change, negative = inhibition": "inactive: 61.2%"}
{"smiles": "Cc1ccccc1N1C(=O)C(Oc2ccc(Cl)cc2)C1CNC(C)(C)C", "note": "(stereo unspecified)", "Potency": "active: 11.7 µM"}
{"smiles": "Cc1cc(C)cc(-n2c(C)cc(/C=N/NC(=O)CSc3ncccn3)c2C)c1", "Potency": "inconclusive [inhibitor, single point]"}
{"smiles": "Cc1cc(C)c(S(=O)(=O)Nc2cccc(S(=O)(=O)N3CCOCC3)c2)c(C)c1", "Potency": "inconclusive [inhibitor, full curve, poor fit]"}
{"smiles": "c1ccc(COc2cncc(-c3cccnc3)c2)cc1", "Potency": "active: 10.4 µM"}
{"smiles": "CC(C)(C)NC(=O)CCN(/N=C/c1ccccc1)C1=NS(=O)(=O)c2ccccc21", "Potency": "inconclusive [inhibitor, single point]"}
{"smiles": "O=C(CN1C(=O)CC(c2ccco2)Sc2ccccc21)NC1CCCCC1", "note": "(stereo unspecified)", "Potency": "inconclusive [inhibitor, full curve, poor fit]"}
{"smiles": "C#CCCc1cocc1/C=[N+](\\[O-])c1ccc(C(=O)OCC)cc1", "Potency": "inconclusive [inhibitor, single point]"}
{"smiles": "COc1ccc(CNC(=O)C(CC(C)C)NC(=O)c2ccccc2C)cc1", "note": "(stereo unspecified)", "Potency": "inconclusive [inhibitor, single point]"}
{"smiles": "CC(C)(C)C(=O)N1CCN(c2ccnc3cc(Cl)ccc23)CC1", "Potency": "inconclusive [inhibitor, partial curve, poor fit]"}
{"smiles": "CC1CCc2c(sc3[nH]c(=S)n(C)c(=O)c23)C1", "note": "(stereo unspecified)", "Potency": "inconclusive [inhibitor, partial curve]"}
{"smiles": "CC(C)[C@H](NS(=O)(=O)c1ccc2c(c1)OCCO2)C(=O)OCC(=O)Nc1ccccc1", "activity change, negative = inhibition": "inactive: -8.54%"}
{"smiles": "O=C(Cc1ccc(Br)cc1)Nc1cccc(-c2cn3c(n2)SCC3)c1", "Potency": "inconclusive [inhibitor, partial curve, poor fit]"}
{"smiles": "CCC(CO)Oc1cc(NC(=O)c2cccc(Cl)c2)c2ncn(C(C)C)c2c1", "note": "(stereo unspecified)", "Potency": "inconclusive [inhibitor, single point]"}
